According to patent US8551981B2, “Furo[3,2-d]pyrimidine compounds” (AbbVie Inc., priority 2010, dated 2013):
Like-named read-outs stand apart in the source and are kept apart here.

Target: Syk catalytic domain (aa 356-635 with a C-terminal His-tag) (Homo sapiens, UniProt P43405)
Experiment: In vitro Syk kinase activity by trFRET (Syk catalytic domain)
[1] = Syk IC50, Syk catalytic domain (aa 356-635), trFRET, 0.001 mM ATP
[2] = Syk catalytic domain (aa 356-635), trFRET, 0.001 mM ATP, read-out: Syk IC50

O=C1CCc2ccc(Nc3nc(OC4CCC4)c4occc4n3)cc2N1 [B.5.105]
IC50 [1]: 100 to 1000 nM

CC1(C)Oc2ccc(Nc3nc(N[C@@H]4[C@H](C(N)=O)[C@H]5C=C[C@@H]4C5)c4occc4n3)cc2NC1=O [B.5.129]
IC50 [2]: < 100 nM

c1cc2nc(Nc3ccc(N4CCOCC4)nc3)nc(NC3CC3)c2o1 [B.5.30]
IC50 [1]: 100 to 1000 nM

Cc1cc(=O)[nH]c2cc(Nc3nc(N4CCC(CNCC(F)F)CC4)c4occc4n3)ccc12 [B.5.83]
IC50 [1]: < 100 nM

c1cc2nc(Nc3ccc4cn[nH]c4c3)nc(N3CCC(CNC4COC4)CC3)c2o1 [C.1.16]
IC50 (Syk IC50, class symbols A-D): 100 to 1000 nM

CC1(C)Oc2ccc(Nc3nc(N4CC[C@@H](CN)[C@H](O)C4)c4occc4n3)cc2NC1=O [Example #AM.1.2]
IC50 (Syk IC50, class symbols A-D): < 100 nM

CNCC1CCN(c2nc(Nc3ccc4c(c3)NC(=O)C(C)(C)S4)nc3ccoc23)CC1 [C.1.71]
IC50 (Syk IC50, class symbols A-D): < 100 nM

CC(=O)NCC1CCN(c2nc(Nc3ccc(S(N)(=O)=O)cc3)nc3ccoc23)CC1 [E.1.1.1]
IC50 [1]: 1000 to 10000 nM

CC1(C)CCc2cc(Nc3nc(NC4CC4)c4occc4n3)ccc2O1 [B.5.51]
IC50 [1]: 100 to 1000 nM

CC1(C)Oc2ccc(Nc3nc(N4CCC(C#N)(CCO)CC4)c4occc4n3)cc2NC1=O [B.5.97]
IC50 [2]: 100 to 1000 nM

NCC1CCN(c2nc(Nc3ccc4cn[nH]c4c3)nc3ccoc23)C1 (centres unmarked) [AG.1.1]
IC50 (Syk IC50, class symbols A-D): 100 to 1000 nM

Cn1ncc2ccc(Nc3nc(NC4CC4)c4occc4n3)cc21 [B.5.12]
IC50 [1]: 100 to 1000 nM

CC1(C)Oc2ccc(Nc3nc(NC4CCC4)c4occc4n3)cc2NC1=O [B.5.6]
IC50 [2]: 100 to 1000 nM

NC1CCCN(c2nc(Nc3ccc4cn[nH]c4c3)nc3ccoc23)CC1 (centres unmarked) [C.1.82]
IC50 (Syk IC50, class symbols A-D): 100 to 1000 nM

Cc1n[nH]c2cc(Nc3nc(NC4CC(F)(F)C4)c4occc4n3)ccc12 [J.1.5]
IC50 [1]: 100 to 1000 nM

CNCC1CCN(c2nc(Nc3ccc4c(c3)NC(=O)C(C)(C)O4)nc3ccoc23)CC1 [C.1.22]
IC50 (Syk IC50, class symbols A-D): < 100 nM

Cc1n[nH]c2cc(Nc3nc(N4CCC(O)(CN)CC4)c4occc4n3)ccc12 [Example #AM.1, 4-(Aminomethyl)-1-(2-(3-methyl-1H-indazol-6-ylamino)furo[3,2-d]pyrimidin-yl)piperidin-4-ol]
IC50 [1]: < 100 nM

CC1(C)C(=O)Nc2cc(Nc3nc(N4CCC(CNCCF)CC4)c4occc4n3)ccc21 [B.5.77]
IC50 [1]: < 100 nM

CC1(C)Oc2ccc(Nc3nc(N4CC5(CCCNC5)C4)c4occc4n3)cc2NC1=O [C.1.75]
IC50 (Syk IC50, class symbols A-D): 100 to 1000 nM

CC1(C)Oc2ccc(Nc3nc(NCC(F)F)c4occc4n3)cc2NC1=O [B.5.67]
IC50 [2]: 100 to 1000 nM

COc1ccc(Nc2nc(NC3CC3)c3occc3n2)cc1 [B.5.131]
IC50 [1]: 100 to 1000 nM

C[C@@H]1CN(c2nc(Nc3ccc4c(c3)NC(=O)C(C)(C)O4)nc3ccoc23)C[C@@H]1CN [C.1.68]
IC50 (Syk IC50, class symbols A-D): 100 to 1000 nM

CC1(C)Oc2ccc(Nc3nc(NC4CC4)c4occc4n3)cc2NC1=O [Example #10, 6-(4-(Cyclopropylamino)furo[3,2-d]pyrimidin-2-ylamino)-2,2-dimethyl-2H-benzo[b][1,4]oxazin-3(4H)-one]
IC50 [2]: < 100 nM

Cn1ncc2cc(Nc3nc(N4CCC(CN)CC4)c4occc4n3)ccc21 [C.1.18]
IC50 (Syk IC50, class symbols A-D): < 100 nM

O=c1[nH]c2cc(Nc3nc(NC4CC4)c4occc4n3)ccc2o1 [B.5.25]
IC50 [1]: 100 to 1000 nM

CC(=O)N(C)c1ccc(Nc2nc(NC3CC3)c3occc3n2)cc1 [B.5.4]
IC50 [1]: 100 to 1000 nM

CC(C)(C)Nc1nc(Nc2ccc3c(c2)NC(=O)C(C)(C)O3)nc2ccoc12 [B.5.72]
IC50 [2]: 100 to 1000 nM

CCCNc1nc(Nc2ccc3c(c2)NC(=O)C(C)(C)C3)nc2ccoc12 [B.5.114]
IC50 [1]: 100 to 1000 nM

CC1(O)CCN(c2nc(Nc3ccc4c(c3)NC(=O)C(C)(C)O4)nc3ccoc23)CC1 [B.5.123]
IC50 [2]: 100 to 1000 nM

O=C1CCc2cc(Nc3nc(NC4CCC4)c4occc4n3)ccc2N1 [B.5.5]
IC50 [1]: 100 to 1000 nM

Cc1n[nH]c2cc(Nc3nc(NC4CC4C(F)(F)F)c4occc4n3)ccc12 (centres unmarked) [J.1.6]
IC50 [1]: 100 to 1000 nM

CC1(CN)CCN(c2nc(Nc3ccc4c(c3)NC(=O)C(C)(C)O4)nc3ccoc23)C1 (centres unmarked) [C.1.64]
IC50 (Syk IC50, class symbols A-D): 100 to 1000 nM

CC(=O)N1CCN(c2nc(Nc3ccc(S(C)(=O)=O)cc3)nc3ccoc23)CC1 [B.3.1]
IC50 [1]: 1000 to 10000 nM

CC(C)CNc1nc(Nc2ccc3c(c2)NC(=O)C(C)(C)C3)nc2ccoc12 [B.5.117]
IC50 [1]: 100 to 1000 nM

CC(=O)N1CCN(c2ccc(Nc3nc(NC4CC4)c4occc4n3)cc2)CC1 [B.1.6]
IC50 [1]: 100 to 1000 nM

CC1(C)Oc2ccc(Nc3nc(N4CCC5(CCCNC5)C4)c4occc4n3)cc2NC1=O (centres unmarked) [C.1.36]
IC50 (Syk IC50, class symbols A-D): < 100 nM

COC1(CN)CCN(c2nc(Nc3ccc4c(c3)NC(=O)C(C)(C)O4)nc3ccoc23)CC1 [F.1, 6-(4-(4-(Aminomethyl)-4-methoxypiperidin-1-yl)furo[3,2-d]pyrimidin-2-ylamino)-2,2-dimethyl-2H-benzo[b][1,4]oxazin-3(4H)-one]
IC50 [1]: < 100 nM

CC1(C)Oc2ccc(Nc3nc(N4CCC5(CCNC5)CC4)c4occc4n3)cc2NC1=O [C.1.58]
IC50 (Syk IC50, class symbols A-D): < 100 nM

O=c1ccc2ccc(Nc3nc(NC4CC4)c4occc4n3)cc2o1 [B.5.52]
IC50 [1]: < 100 nM

c1cc2nc(Nc3ccc4c(c3)OCCO4)nc(NC3CC3)c2o1 [B.5.53]
IC50 [1]: 100 to 1000 nM

NC(=O)[C@@H]1CCCN1c1nc(Nc2ccc(S(N)(=O)=O)cc2)nc2ccoc12 [B.2.3]
IC50 [1]: > 10000 nM

NCC1CCN(c2nc(Nc3ccc(S(N)(=O)=O)cc3)nc3ccoc23)CC1 [C.1, 4-(4-(4-(Aminomethyl)piperidin-1-yl)furo[3,2-d]pyrimidin-2-ylamino)benzenesulfonamide]
IC50 [1]: < 100 nM

Cc1cc(Nc2nc(NC3CC3)c3occc3n2)cc2[nH]ncc12 [Example #AC.1, N^4-cyclopropyl-N^2-(4-methyl-1H-indazol-6-yl)furo[3,2-d]pyrimidine-2,4-diamine]
IC50 [1]: < 100 nM

O=C1CCc2cc(Nc3nc(NC4CC4)c4occc4n3)ccc21 [B.5.21]
IC50 [1]: 100 to 1000 nM

CC(N)C1CCN(c2nc(Nc3ccc4c(c3)NC(=O)C(C)(C)O4)nc3ccoc23)CC1 (centres unmarked) [C.1.62]
IC50 (Syk IC50, class symbols A-D): < 100 nM

CCCC(=O)Nc1ccc(Nc2nc(NC3CCC3)c3occc3n2)cc1 [B.5.3]
IC50 [1]: 1000 to 10000 nM

CC1(C)Sc2ccc(Nc3nc(N4CCC(CNCC(F)F)CC4)c4occc4n3)cc2NC1=O [B.5.95]
IC50 [1]: 100 to 1000 nM

c1cc2nc(Nc3ccc(CN4CCOCC4)cc3)nc(NC3CC3)c2o1 [B.1.5]
IC50 [1]: 100 to 1000 nM

CC(NCC(F)F)C1CCN(c2nc(Nc3ccc4c(c3)NC(=O)C4(C)C)nc3ccoc23)CC1 (centres unmarked) [B.5.90]
IC50 [1]: < 100 nM

CC1(C)Oc2ccc(Nc3nc(N4CCC(CNCCC(F)(F)F)CC4)c4occc4n3)cc2NC1=O [B.5.98]
IC50 [2]: 100 to 1000 nM

CC1(CO)CCN(c2nc(Nc3ccc4c(c3)NC(=O)C(C)(C)O4)nc3ccoc23)CC1 [B.5.122]
IC50 [2]: 100 to 1000 nM

Cc1n[nH]c2cc(Nc3nc(NC4CC4)c4occc4n3)cc(F)c12 [Example #AC.1.1]
IC50 [1]: < 100 nM

NC(=O)[C@H]1CCCN1c1nc(Nc2ccc(S(N)(=O)=O)cc2)nc2ccoc12 [B.2.1]
IC50 [1]: > 10000 nM

Cc1n[nH]c2cc(Nc3nc(NC4CCc5cn[nH]c5C4)c4occc4n3)ccc12 (centres unmarked) [AK.1.1]
IC50 (Syk IC50, class symbols A-D): 100 to 1000 nM

Cc1n[nH]c2cc(Nc3nc(N4CCC(CNCC(F)F)CC4)c4occc4n3)ccc12 [C.1.54]
IC50 (Syk IC50, class symbols A-D): < 100 nM

Cn1ncc2cc(Nc3nc(NC4CC4)c4occc4n3)ccc21 [B.5.8]
IC50 [1]: < 100 nM

Cc1n[nH]c2cc(Nc3nc(N[C@H]4CC[C@@H](N)C4)c4occc4n3)ccc12 [C.1.28]
IC50 (Syk IC50, class symbols A-D): 100 to 1000 nM

COc1cc(Nc2nc(N3CCC4(CCNC4)CC3)c3occc3n2)ccc1N1CCOCC1 [C.1.45]
IC50 (Syk IC50, class symbols A-D): 100 to 1000 nM

Cc1n[nH]c2cc(Nc3nc(N4CCC(CNCCS(C)(=O)=O)CC4)c4occc4n3)ccc12 [C.1.60]
IC50 (Syk IC50, class symbols A-D): < 100 nM

CC1(C)CNc2cc(Nc3nc(NC4CC4)c4occc4n3)ccc2O1 [B.5.49]
IC50 [1]: 100 to 1000 nM

CC1(C)Oc2ccc(Nc3nc(N4CCC(O)(CO)CC4)c4occc4n3)cc2NC1=O [B.5.125]
IC50 [2]: 100 to 1000 nM

c1cc2nc(Nc3ccc(N4CCNCC4)cc3)nc(NC3CCC3)c2o1 [C.1.12]
IC50 (Syk IC50, class symbols A-D): 100 to 1000 nM

CNCC1CCN(c2nc(Nc3ccc4cn[nH]c4c3)nc3ccoc23)C1 (centres unmarked) [J.1.2]
IC50 [1]: 100 to 1000 nM

CC1Cc2ccc(Nc3nc(NC4CCC4)c4occc4n3)cc2NC1=O (centres unmarked) [B.5.110]
IC50 [1]: < 100 nM

NC(=O)[C@H]1[C@@H](Nc2nc(Nc3ccc(S(N)(=O)=O)cc3)nc3ccoc23)[C@@H]2C=C[C@H]1C2 [B.2.10]
IC50 [1]: < 100 nM

c1cc2nc(Nc3ccc4cn[nH]c4c3)nc(NC3CC3)c2o1 [Example #15, N^4-Cyclopropyl-N^2-(1H-indazol-6-yl)furo[3,2-d]pyrimidine-2,4-diamine]
IC50 [1]: < 100 nM

O=C1CCc2cc(Nc3nc(NC4CC4)c4occc4n3)ccc2N1 [B.1.11]
IC50 [1]: 100 to 1000 nM

O=C(c1n[nH]c2cc(Nc3nc(NC4CC4)c4occc4n3)ccc12)N1CCOCC1 [J.1.14]
IC50 [1]: < 100 nM

Cc1n[nH]c2cc(Nc3nc(OC4CCC4)c4occc4n3)ccc12 [C.1.81]
IC50 (Syk IC50, class symbols A-D): < 100 nM

CC1(C)Oc2ccc(Nc3nc(N4CCC(CNCCF)CC4)c4occc4n3)cc2NC1=O [B.5.76]
IC50 [2]: < 100 nM

Cc1cc(Nc2nc(N3CCC4(CCNC4)CC3)c3occc3n2)ccc1N1CCOCC1 [C.1.46]
IC50 (Syk IC50, class symbols A-D): < 100 nM
